Results taken from the supplement of paper PMC4967469.
Lines with a small IC50 respond at low doses; where the fit passes the top or lowest dose, that dose stands as a limit. AUC sums up the same curve from the lowest dose to the 256-fold higher top dose; the more sensitive the line, the further below 1. Any top dose called inferred was calculated from the reported fits.

Legend:
Assay in all cases: Viability of human cancer cell lines after 72 h of drug (GDSC screen)
[1] = compound: CC(C)(C)OC(=O)Nc1ccc(-c2cc(C(=O)NCCCCCCC(=O)NO)no2)cc1 [CAY10603]; details: top dose 20 µM; top dose inferred
Experimental: (§1)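 Human cancer cell lines in 384-well plates, medium with 10% serum, drug for 72 h over a 256-fold dose range (nine 2-fold or five 4-fold steps up to the top dose). Adherent lines were fixed and stained with the nucleic acid dye Syto60, suspension lines read with resazurin; signal relative to control wells, capped at 0 and 100%. One two-parameter sigmoid per drug and line, fitted in a mixed model over all curves with the slope shared within a line.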

[2] = compound: N#Cc1c(C2CCNCC2)cc(-c2c(O)cccc2OCC2CC2)nc1N [ACHP (KIN001-260)]; details: top dose 20 µM; top dose inferred
Experimental: as §1

[3] = compound: CCc1cc2c(cc1N1CCC(N3CCOCC3)CC1)C(C)(C)c1[nH]c3cc(C#N)ccc3c1C2=O [CH5424802]; details: top dose 5.12 µM; top dose inferred
Experimental: as §1

Row | Cell Line | AUC [1] | IC50 [1] [µM] | AUC [2] | IC50 [2] [µM] | AUC [3] | IC50 [3] [µM]
1 | MC116 (B-cell lymphoma, suspension) | 0.277 | 0.362 | 0.991 | > 20 | 0.999 | > 5.12
2 | SW1088 (glioma, adherent) | 0.774 | 10.3 | 0.964 | > 20 | 0.982 | > 5.12
3 | PCI-38 (head and neck, adherent) | 0.611 | 2.52 | 0.964 | > 20 | 0.977 | > 5.12
4 | RT-112 (bladder, adherent) | 0.564 | 1.9 | 0.984 | > 20 | 0.977 | > 5.12
5 | NCI-H209 (small cell lung carcinoma, suspension) | 0.973 | > 20 | 0.951 | > 20 | 0.919 | > 5.12
6 | SUP-T1 (T-cell lymphoblastic leukaemia, suspension) | 0.356 | 0.52 | 0.975 | > 20 | 0.907 | > 5.12
7 | HCE-4 (oesophagus, adherent) | 0.986 | > 20 | 0.992 | > 20 | 0.99 | > 5.12
8 | GOTO (neuroblastoma, adherent) | 0.31 | 0.339 | 0.941 | > 20 | 0.983 | > 5.12
9 | SW1417 (large intestine, adherent) | 0.683 | 4.45 | 0.985 | > 20 | 0.957 | > 5.12
10 | TALL-1 (T-cell lymphoblastic leukaemia, suspension) | 0.545 | 1.65 | 0.986 | > 20 | 0.988 | > 5.12
11 | J82 (bladder, adherent) | 0.847 | 14.7 | 0.971 | > 20 | 0.987 | > 5.12
12 | LU-135 (small cell lung carcinoma, suspension) | 0.186 | 0.18 | 0.954 | > 20 | 0.952 | > 5.12
13 | KP-4 (pancreas, adherent) | 0.664 | 3.49 | 0.985 | > 20 | 0.988 | > 5.12
14 | NCI-H322M (lung adenocarcinoma, suspension) | 0.679 | 4.48 | 0.965 | > 20 | 0.978 | > 5.12
15 | YMB-1-E (breast, adherent) | 0.721 | 6.79 | 0.967 | > 20 | 0.978 | > 5.12
16 | SUIT-2 (pancreas, adherent) | 0.505 | 1.29 | 0.838 | 14.5 | 0.974 | > 5.12
17 | CESS (acute myeloid leukaemia, suspension) | 0.198 | 0.19 | 0.874 | 14.8 | 0.98 | > 5.12
18 | HH (T-cell leukaemia, suspension) | 0.345 | 0.402 | 0.683 | 4.84 | 0.974 | > 5.12

Row | Cell Line | AUC [1] | IC50 [1] [µM] | AUC [2] | IC50 [2] [µM] | AUC [3] | IC50 [3] [µM]
19 | LC4-1 (lymphoblastic leukaemia, suspension) | 0.347 | 0.447 | 0.851 | 17.8 | 0.934 | > 5.12
20 | OSC-20 (head and neck, adherent) | 0.544 | 1.69 | 0.98 | > 20 | 0.971 | > 5.12
21 | SK-OV-3 (ovary, adherent) | 0.441 | 0.828 | 0.966 | > 20 | 0.946 | > 5.12
22 | HC-1 (hairy cell leukaemia, suspension) | 0.256 | 0.258 | 0.838 | 12.7 | 0.983 | > 5.12
23 | AN3-CA (endometrium, adherent) | 0.696 | 4.7 | 0.984 | > 20 | 0.983 | > 5.12
24 | NCI-H838 (lung adenocarcinoma, adherent) | 0.567 | 1.92 | 0.971 | > 20 | 0.983 | > 5.12
25 | SU-DHL-16 (B-cell lymphoma, suspension) | 0.026 | < 0.0781 | 0.729 | 4.51 | 0.994 | > 5.12
26 | SNU-423 (liver, adherent) | 0.406 | 0.659 | 0.956 | > 20 | 0.967 | > 5.12
27 | CAL-72 (osteosarcoma, adherent) | 0.949 | > 20 | 0.984 | > 20 | 0.984 | > 5.12
28 | NCI-H2227 (small cell lung carcinoma, semi-adherent) | 0.305 | 0.327 | 0.911 | > 20 | 0.965 | > 5.12
29 | MS-1 (small cell lung carcinoma, suspension) | 0.293 | 0.351 | 0.963 | > 20 | 0.969 | > 5.12
30 | JHH-6 (liver, adherent) | 0.708 | 4.88 | 0.975 | > 20 | 0.987 | > 5.12
31 | PANC-04-03 (pancreas, adherent) | 0.921 | > 20 | 0.972 | > 20 | 0.943 | > 5.12
32 | NCI-H2029 (small cell lung carcinoma, adherent) | 0.737 | 5.46 | 0.987 | > 20 | 0.99 | > 5.12
33 | L-1236 (Hodgkin lymphoma, suspension) | 0.381 | 0.624 | 0.744 | 5.44 | 0.992 | > 5.12
34 | Hep 3B2_1-7 (liver, adherent) | 0.604 | 2.4 | 0.986 | > 20 | 0.984 | > 5.12
35 | KP-3 (pancreas, adherent) | 0.679 | 4.39 | 0.968 | > 20 | 0.966 | > 5.12
36 | MCF7 (breast, adherent) | 0.808 | 10.8 | 0.986 | > 20 | 0.985 | > 5.12
